Experimental data: the RNAGym collection of RNA variant scans (doi:10.7554/elife.90254)
The source gives no read counts; variants with many changes may rest on few reads.

B1: LINE1-mini (parent)
chain: GGCAGAGCUCAACACAGCGUGGCAAAGUGGCUGUGGCUAGACUGCC

Variants of: B1
Experiment: self-cleavage, relative activity (ratio to wild type); higher = more cleavage; in vitro, sequencing; the parent is a self-cleaving ribozyme

Variant	self-cleavage
C10U C23G G30A U34G	0.34
C10G C31A U34A	0.01
C10U A24C U32C G33A	0.04
C10U A24U G27U	0.61
C10U A25U U28A G29U	0.9
C10U A25U C31A U32A	0.2
C10U C13U U43C	0.05
C10U C15G C18U U20A C45G	0.01
C10G G19U A39C C42G	0.01
C10U A39U C45A	0.06
C10U C37G G44C	0.08
C10G G22C C37G	0.01
C10G G22C C37A	0.01
C10U C18G G35U C45U	0.05
C10G C23U C31A G33U	0.01
C10U C13A G19A G22A	0.03
C10U C13U C15A G19U	0.04
C10G G30U U43A	0.02
C10U A12G C15U G22U	0.02
C10U A16C C18U G44C	0.02
C10G G22U A26C	0.15
C10G G30A A39G	0.02
C10U G17U G19A G22C A41U	0.06
C10U C18G U43C	0.01

Variant	self-cleavage
C10U G17U G19U G29U C31U	0.05
C10U C15G G22U	0.06
C10U C18A G22C	0.06
C10U A14C C37A G40C U43G	0.04
C10U C23U A26U	0.07
C10U C31G U32A	0.07
C10G U20A C46U	0.04
C10G G19A C31A U38C	0.02
C10U A11U U28A U34C U43G	0
C10G U20A G33U	0.03
C10G U28G C37U C45G	0.01
C10G G30U C37A	0.02
C10G G21C G29A C31U G36U	0
C10G G19C A41G C42U	0.01
C10G G19U G21C A26U U28G G30U G44C	0.05
C10G G22A G33U U38G	0.01
C10U C15G G17A	0.04
C10U A12C G33U	0.05
C10G G17A C31A	0.05
C10G G17U G33C C37A	0.02
C10U A25U G27C C31A	0.42
C10G G17A A25U	0.06
C10G U32A U43C	0
C10U C15A G30C U38G	0.03

Variant	self-cleavage
C10U A41U C45U	0.07
C10U A12G A26C G30C A41G	0.01
C10U C18U C23G C31U	0.02
C10G G21A G22C G36U C46G	0.01
C10U A12G C15G G29A U32G	0.02
C10U A12C G22C A41G C42U	0
C10G G36A G40A	0
C10G U28G C46G	0.03
C10U C15G A16U U28C	0.02
C10U C31G G33A	0
C10U A24U G40U	0.06
C10U A11U G19C G27U	0.08
C10U C13A U32G G33A A41U	0.03
C10U A14C U20C G33C	0.02
C10U C23U G30A	0.26
C10U G17A U20A G29U G35C C37A U38C G44A	0.01
C10U C15G A16C	0.02
C10U A12G C13A A16U C46G	0.01
C10U C31G C37A	0.03
C10U A12G G33C	0.02
C10G U34C G44C	0.03
C10U C15G G17U G22C G33A	0.07
C10U A11G C37A C42A C46G	0.01
C10U C15A C18U	0.02

Variant	self-cleavage
C10U A11U C13U A16U G29U	0.03
C10G G22U A26C C31A U38A C42U	0.02
C10U C15A G40C	0.02
C10U C18A G19C	0.37
C10U A14G A16G U20G	0
C10G U34C A39G C42U	0.02
C10U A11U C18A C31G A41C	0.01
C10U G19A G21A	1.1
C10G G17U G21U C42A	0.01
C10G G19C C23U G44A	0.02
C10U G17C G22U C42U	0.05
C10U C15U G21A U34C	0.05
C10U A11C A14U	0.08
C10U C18U A26U U43A	0.02
C10U C23U A26U C42G G44C	0.02
C10U A16C A25G G35A	0.03
C10U A16U G22C	0.07
C10U C37A C42G	0
C10U G17U G30C	0.42
C10U C31A G35U	0.02
C10U A16C G22C	0.03
C10U A16U G17U G19U G22C	0.07
C10U G19A A26U U43C	0.06
C10U A14G G17U C31G U34G C45U	0.02

Variant	self-cleavage
C10G G40U C45U	0.03
C10U A16G A26G A39G U43A	0.01
C10G G17U G19A G36U A41U	0.01
C10U G17C C37U A41U	0.02
C10G U38G A39U G40U	0.01
C10U A25C A26C G29C G30A C46A	0.65
C10U G17U G19C U32C G33C	0
C10G G35U A39C	0.02
C10G G21A G36A	0.03
C10U A14C C42G	0.09
C10U A12U C42U C46A	0.09
C10U A12C C15U A16U	0.03
C10G G17U G33U	0.01
C10G G17U G33C	0.01
C10U C13A G36U G40U	0.13
C10G G19A G30U U32A G33A C45U	0.01
C10U C13A U32C U43G	0.01
C10G G19A G27C	0.06
C10G C31A U38C	0.01
C10U A11U U34G	0.02
C10G G21U C45U	0.33
C10G G17U G33U C46G	0.02
C10U C15U G19C G35U G44A	0.03
C10U C18G G35U A39C	0.02

Variant	self-cleavage
C10U C13G G19A A39U	0.16
C10U G19A G22C U43A	0.01
C10U A12G C15U	0.09
C10G G19C C42A	0
C10G G19U G36U	0.01
C10G G19U G36C	0.02
C10U A14C A25G C42U	0
C10U A25G U28C C31G	0.02
C10G U34A C46A	0.05
C10G U34A C46U	0.05
C10U A25U G40A	0.04
C10U C37G U38A	0
C10U A14G G21U A25C C42A	0.05
C10U A14C G33C G36C C42A	0.01
C10U C15U A26U G36U	0.07
C10U A24U U28C C37A	0.01
C10U A11C G33C	0.02
C10U C23U G30U G35C	0.03
C10U A24G C37U A41U	0.02
C10U C18A A24C	0.19
C10G G21A A25G C37U C46U	0
C10G G22U A24G	0.12
C10U C13G A39U G40U	0.02
C10U A14U U32C	0.04

Variant	self-cleavage
C10G C23U C46G	0.16
C10G U32G G33A	0.05
C10G G35C G40C	0.02
C10G U28A C37G	0.01
C10U C31G U34A	0.01
C10U A12U C23A A25C A41C	0.03
C10U G19C A25G C37A	0.04
C10U A11U A14G G19U A26C	0.03
C10U C18G G19U G21C	0.22
C10U A24U G33U	0.04
C10G G21U G40U	0.03
C10G G22U G44U	0.02
C10U C23U G35A C37U G40C A41C	0
C10G G29U C45A	0.03
C10U C15U C18U	0.08
C10U A16U G30A G44U	0.05
C10U G17A G21A G35U U38A	0.03
C10G G19A G29C	0.16
C10G U20A G22C G36A	0.02
C10G G33C C37A	0
C10U C13A U20G A25G A41G	0
C10G G21U C37G	0
C10G G21C G44C	0.05
